In the supplement of paper PMC7125110:
± gives the standard error. This sample is rich in variants without activity.

B1: glmS ribozyme (parent)
chain: AUAAAAGCGCCAGAACUACAGAAAUGUAGUUGACGAGGAGGAGGUUUAUCGAAUUUUCGGCGGAUGCCUCCAAA

Variants of: B1
Test: self-cleavage kobs at 2500 uM GlcN6P; higher = faster cleavage; RNA array
Conditions: with glucosamine-6-phosphate
In short: (§1)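 E. coli RNA polymerase transcribed barcoded ribozyme variants in situ on sequenced MiSeq chips, which were tracked via a hybridised Cy3 probe at 37 °C. Tiles were imaged over ~14 h after glucosamine-6-phosphate (40 μM to 10 mM) in HEPES/KCl/Mg(OAc)2 buffer was flowed in. Normalised per-tile medians were fit to one- or two-exponential decays for kobs, and kcat and KM came from weighted Michaelis–Menten fits.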

| Variant | self-cleavage kobs at 2500 uM GlcN6P [s⁻¹] |
| --- | --- |
| A33U C61U C67A | < 1e-05 |
| A33U G37C C70G | < 1e-05 |
| C34A C50U C71G | < 1e-05 |
| C34A G35U U55G | < 1e-05 |
| C34A G37U A64G | < 1e-05 |
| C34A G40C U46C U47A G59C | < 1e-05 |
| C34A G43A A64G | < 1e-05 |
| C34G G38U U54A C71G | < 1e-05 |
| C34G G40C U47G | < 1e-05 |
| C34G G41C G44A C58G C71U | < 1e-05 |
| C34U A39U G41C U69G | < 1e-05 |
| C34U A42U U49G | < 1e-05 |
| C34U C58A C68U C70U | < 1e-05 |
| C34U G35A G44C U54A U65G | < 1e-05 |
| C34U G35C G51A | < 1e-05 |
| C34U G40A U54C | < 1e-05 |
| C34U G43U U56G U57A | < 1e-05 |
| C34U G63U A64G | 0.000111 ± 3.8e-05 |
| C34U U45C G59C | < 1e-05 |
| G35A A53G C58U | < 1e-05 |
| G35A C50U G60U C67A | < 1e-05 |

| Variant | self-cleavage kobs at 2500 uM GlcN6P [s⁻¹] |
| --- | --- |
| G35A G43A A53G C67U | < 1e-05 |
| G35A U69G | < 1e-05 |
| G35C A39U A48U C61A G66U | < 1e-05 |
| G35C A53C | < 1e-05 |
| G35C G38C A39C U49A | < 1e-05 |
| G35C G41A G59U C70G | < 1e-05 |
| G35U A36C G37C A53U C67U | < 1e-05 |
| G35U A42U A64U | < 1e-05 |
| G35U G37U G43U G44A | < 1e-05 |
| G35U G41A U54C | < 1e-05 |
| G35U U47A U55C | < 1e-05 |
| G35U U49A | < 1e-05 |
| A36C G40C A48U U69G | < 1e-05 |
| A36C G40U U47G C67A | < 1e-05 |
| A36C G43C U49C | < 1e-05 |
| A36C G44U A48U C68G | < 1e-05 |
| A36G A48U C67G | < 1e-05 |
| A36G U54A | < 1e-05 |
| A36G U55A U65G | < 1e-05 |
| A36U A39U C70U | < 1e-05 |
| A36U A42G G63U | < 1e-05 |

| Variant | self-cleavage kobs at 2500 uM GlcN6P [s⁻¹] |
| --- | --- |
| A36U G37A G44U A48G C61A | < 1e-05 |
| A36U G37C G59C | < 1e-05 |
| A36U G40C A52U | < 1e-05 |
| A36U G40U A64C | < 1e-05 |
| A36U U45G U46G C68G | < 1e-05 |
| A36U U46C A53C | < 1e-05 |
| A36U U55G C61U | < 1e-05 |
| G37A A39C G40C G41A U45C G51U C58G | < 1e-05 |
| G37A A39C G59C | < 1e-05 |
| G37A G41U U45C A48C | < 1e-05 |
| G37A G44C G60A U65G | < 1e-05 |
| G37A G62C A64U | < 1e-05 |
| G37C G40A G63U | < 1e-05 |
| G37C G44A U54A | < 1e-05 |
| G37C G60A C68U | < 1e-05 |
| G37U A39G C68G | < 1e-05 |
| G37U A42U U54G U57A C67A | < 1e-05 |
| G37U A53C | < 1e-05 |
| G37U G38C U55C | < 1e-05 |
| G37U G44U G59A C70U | < 1e-05 |
| G38A A52G U57A C68A | 7.01e-05 ± 1.7e-05 |

| Variant | self-cleavage kobs at 2500 uM GlcN6P [s⁻¹] |
| --- | --- |
| G38A A52U C71G | < 1e-05 |
| G38A U54C C68U | < 1e-05 |
| G38A U55C U56C | < 1e-05 |
| G38C A53U | < 1e-05 |
| G38C G44C A52U U54A | < 1e-05 |
| G38C G60C G63A | < 1e-05 |
| G38C U47C C67U | < 1e-05 |
| G38U A42U G44U G51U | < 1e-05 |
| A39C G41U A53C | < 1e-05 |
| A39C U49C U57G G63U | < 1e-05 |
| A39G C61G G66U | < 1e-05 |
| A39G G40C U57G | < 1e-05 |
| A39G G41A U45G C50A | < 1e-05 |
| A39G G41C C50U | < 1e-05 |
| A39G G41U U47A U55C G60A C68U | < 1e-05 |
| A39G U55C A64G | 0.00694 ± 0.0013 |
| A39U A42G A64U | 5.16e-05 ± 2.2e-05 |
| A39U U47C U56A | 0.00121 ± 0.00039 |

Variants of: B1
Test: self-cleavage kobs at 10000 uM GlcN6P; higher = faster cleavage; RNA array
Conditions: with glucosamine-6-phosphate
In short: as §1

| Variant | self-cleavage kobs at 10000 uM GlcN6P [s⁻¹] |
| --- | --- |
| C34U A42U U49G | < 1e-05 |
| A36C G43C U49C | < 1e-05 |
| G37C G60A C68U | < 1e-05 |
| G37U A53C | < 1e-05 |
| G38C A53U | < 1e-05 |
| A39G G41U U47A U55C G60A C68U | < 1e-05 |
